Laboratory results as given in PubChem BioAssay AID1671194 (National Center for Advancing Translational Sciences (NCATS), 2021).
Hit rate of the full screen: of about 140,000 compounds, about 240 (0.17%) were called active. The inconclusive results got no clear call from the source; some entries with a clear call stand among them for comparison. Calls come from the whole dose curve; as a rule, active = well fitted inhibition curve with a large enough effect; inconclusive = small, poorly fitted or top-dose-only effect; inactive = no such curve, though single readings can be large or run the other way. Potencies beside an inconclusive call are fits to weak or partial responses and may not hold up.

test: Primary qHTS assay for inhibitors of alpha-synuclein gene (SNCA) expression; details: HEK-293 SNCA-luciferase knock-in, luminescence, 24 h; series mostly up to 57.2 µM; note: nearly all actives have a fitted effect of over 45% in size
Potency is the fitted concentration of half-maximal effect; tags give direction and shape of the fitted curve.

Row | Structure (SMILES) | Potency
1 | COc1cccc(CN2CCNC(=O)C2CC(=O)N2CCC(O)CC2)c1OC (centres undefined) | inconclusive: 39.8 µM [inhibitor, single point]
2 | Cc1ccccc1-c1nc2cnccn2c1NCCC(=O)N1CCCCC1 | inactive
3 | CCc1ccc(NC(=O)C(Cc2ccccc2)NS(=O)(=O)c2ccc3c(c2)c(=O)n(C)c(=O)n3C)cc1 (centres undefined) | inconclusive: 25.1 µM [inhibitor, partial curve, poor fit]
4 | COCc1nnc2n1CCC(NC(=O)CCc1ccc(OC)cc1)CC2 (centres undefined) | inactive
5 | COCCNC(=O)C[C@@H]1C[C@H]2O[C@H](CNCc3ccccc3OC)[C@@H](O)[C@H]2O1 | inconclusive: 56.2 µM [inhibitor, single point]
6 | CCN(C(=O)CSc1nc2ccccc2nc1Cc1ccc(F)cc1)c1cccc(C)c1 | inconclusive: 11.2 µM [inhibitor, partial curve, poor fit]
7 | COc1cc(CN2C[C@@H](CO)[C@H](C3CCN(C(C)=O)CC3)C2)ccc1F | inconclusive: 2 µM [inhibitor, partial curve, poor fit]
8 | CCC(C(=O)Nc1ccc(C)c(Cl)c1)n1c(=O)c(-c2ccccc2NC(C)=O)nc2ccccc21 (centres undefined) | inconclusive: 20 µM [inhibitor, partial curve, poor fit]
9 | COc1cccc(-c2cnc3n[nH]c(-c4ccccc4)c3n2)c1 | inconclusive: 12.6 µM [inhibitor, partial curve]
10 | Cc1cccc(NC(=O)Cn2c(-c3cccc(Cl)c3)nc(C)c(CCO)c2=O)c1 | inactive
11 | Cc1cccc(-c2nc3ccc(C(=O)N4C(C)CCCC4C)cc3o2)n1 (centres undefined) | inconclusive: 56.2 µM [inhibitor, single point]
12 | O=C(NCCn1cc(SCc2ccc(F)cc2)c2ccccc21)c1cccs1 | inconclusive: 39.8 µM [inhibitor, single point]
13 | CC(C)CC(C(=O)NCC1CCN(Cc2ccc(F)cc2)CC1)N1Cc2ccccc2C1=O (centres undefined) | inconclusive: 39.8 µM [inhibitor, single point]
14 | COc1ccc(NC(=O)C2CCC(CNS(=O)(=O)c3ccc(Br)s3)CC2)c(OC)c1 (centres undefined) | inconclusive: 20 µM [inhibitor, single point]
15 | Cc1cccc(S(=O)(=O)c2cn(C)c3cc(N4CCN(c5ccccc5)CC4)c(F)cc3c2=O)c1 | inconclusive: 7.08 µM [inhibitor, single point]
16 | O=[S+]([O-])(NC1CCN(Cc2cccc(-c3ccc(F)c(F)c3)c2)CC1)c1cccc(C(F)(F)F)c1 | inconclusive: 39.8 µM [inhibitor, single point]
17 | O=C(Nc1cccc(Cl)c1)[C@@H]1C[C@@H](c2ccc(F)cc2)N([S+](=O)([O-])c2ccccc2)C1 | inconclusive: 39.8 µM [inhibitor, single point]
18 | CC1(CNc2ccccc2)COc2ccc(C(=O)N3CCN(c4ccccn4)CC3)cc2N1 (centres undefined) | inconclusive: 39.8 µM [inhibitor, single point]
19 | COc1ccc(-c2cc3nc4c(c(=O)n3[nH]2)CN(C(=O)c2cc(CN3CCOCC3)on2)CC4)cc1 | inconclusive: 14.1 µM [inhibitor, partial curve, poor fit]
20 | CC(C)=CC(=O)N1C[C@@H](NC(=O)NC2CCCCC2)C[C@H]1C(=O)N[C@H](Cc1c[nH]c2ccccc12)C(N)=O | inactive

Row | Structure (SMILES) | Potency
21 | CCOC(=O)c1cccc(NC(=O)NC(C)c2c(-n3cccc3)sc3c2CCN(C)C3)c1 (centres undefined) | inconclusive: 39.8 µM [inhibitor, single point]
22 | CCCNC(=O)CN1CCN(c2ccc(NC(=O)c3ccc(OC)cc3)cc2C(=O)O)CC1 | inconclusive: 1 µM [inhibitor, partial curve, poor fit]
23 | N#Cc1ccc(CN2CC[C@@H]3OCC(=O)N(CCc4cccnc4)[C@H]3CC2)cc1 | inconclusive: 39.8 µM [inhibitor, single point]
24 | COc1ccc(C(=O)NC2CCN(Cc3cccc(-c4ccc(F)c(F)c4)c3)CC2)cc1 | inconclusive: 15.8 µM [inhibitor, partial curve, poor fit]
25 | O=C(O)CCC(=O)N[C@H]1CCN2C(=O)c3cc(-c4cccc(C(F)(F)F)c4)ccc3NC(=O)[C@H]12 | inactive
26 | O=c1ccc2cc(S(=O)(=O)Nc3ccc(OC(F)(F)F)cc3)ccc2[nH]1 | inconclusive: 5.62 µM [inhibitor, partial curve]
27 | COc1cc(NC(=O)c2cc3c(N4CCCC4)nc(C)cn3n2)cc(OC)c1OC | inactive
28 | CC(C)c1nc2c(c(-c3ccc(Cl)cc3)n1)CCN(CC1CCCCC1)CC2 | inconclusive: 10 µM [inhibitor, partial curve, poor fit]
29 | CC1(C)[C@H](Cc2cc(CN3CCCCC3)on2)C[C@@H]1NCc1ccccn1 | inactive
30 | CC(C)(Oc1nn(CCOc2ccccc2)c2ccccc12)C(=O)NCC1CCOCC1 | inconclusive: 56.2 µM [inhibitor, single point]
31 | O=C(Cn1c(=O)nc(-c2ccccc2F)c2cc(Cl)ccc21)NCCCc1ccccc1 | inconclusive: 39.8 µM [inhibitor, single point]
32 | CC(C)CN1CCN(C(=O)c2ccc3c(c2)C(O)CCCCCN3C)CC1 (centres undefined) | inactive
33 | Cn1c2ccccc2c2cnn(CC(=O)Nc3ccccc3F)c(=O)c21 | inconclusive: 39.8 µM [inhibitor, single point]
34 | CCc1ccc(OCC(=O)Nc2ncn[nH]2)c(Br)c1 | inconclusive: 8.91 µM [inhibitor, partial curve, poor fit]
35 | Cc1ncoc1C(=O)N1CCOc2ccc(CCC(=O)NCC3CC3)cc2C1 | inconclusive: 39.8 µM [inhibitor, single point]
36 | CCc1cccc(C)c1Nc1c(-c2ccsc2)nc2ncccn12 | inconclusive: 39.8 µM [inhibitor, single point]
37 | COc1ccc(CNC(=O)C2CCCN(c3nnc(C)c4c(C)n(-c5ccc(C)cc5)nc34)C2)cc1 (centres undefined) | inconclusive: 28.2 µM [inhibitor, single point]
38 | COc1ccc(Cn2ccc3nc(C)c(C(=O)N4CCN(c5ccccc5OC)CC4)cc3c2=O)cc1 | inconclusive: 17.8 µM [inhibitor, partial curve, poor fit]
39 | COc1ccc(OCC2c3cc(OC)c(OC)cc3CCN2C(=O)COc2ccc(Cl)cc2Cl)cc1 (centres undefined) | inconclusive: 4.47 µM [inhibitor, full curve, poor fit]
40 | Cc1ccc(C(=O)N[C@@H]2CN(Cc3ccncc3)C[C@H]2CN(C)C)c(C)c1 | inconclusive: 14.1 µM [inhibitor, partial curve, poor fit]

Row | Structure (SMILES) | Potency
41 | O=C(Nc1cccc(F)c1)Nc1cccc(-c2ccc(N3CCCCC3)nn2)c1 | inconclusive: 15.8 µM [inhibitor, single point]
42 | CCN(CC)CCCNC(=O)CSc1nc2nc(C)c(Cc3c(F)cccc3Cl)c(C)n2n1 | inconclusive: 3.98 µM [inhibitor, single point]
43 | CCc1ccc(-n2nc(CO)c(C(=O)NCC(c3ccccc3)c3ccccc3)n2)cc1 | inactive
44 | COC(=O)[C@@H]1Cc2c([nH]c3ccccc23)[C@H]2C[C@@H](NCCO)C[C@@H](c3ccccc3F)N21 | inconclusive: 56.2 µM [inhibitor, single point]
45 | CCn1c(SCc2ccc(F)cc2Cl)nc(=O)c2c(C(=O)OC)cc(C3CC3)nc21 | inconclusive: 3.16 µM [inhibitor, full curve, poor fit]
46 | O=C(NCC1CCCCC1)C1CCc2nc(N3CCN(C(=O)C4CCC4)CC3)sc2C1 (centres undefined) | inconclusive: 1.12 µM [inhibitor, full curve, poor fit]
47 | OCCC#Cc1nc(-c2ccc(F)cc2)c(-c2ccncc2)n1CCCc1ccccc1 | inconclusive: 15.2 µM [inhibitor, single point]
48 | O=S(=O)(c1ccccc1F)N1CCC(F)(c2nc(Cc3ccccc3)no2)CC1 | inactive
49 | O=C(NC1CCCCC1)C1CCN(C(=O)c2ccc(-c3cncnc3)cc2)CC1 | inactive
50 | C=CCC1(CO)CCCN(CCS(=O)(=O)c2ccccc2)C1 (centres undefined) | inconclusive: 17.8 µM [inhibitor, partial curve, poor fit]
51 | O=C(c1nnc(CNc2ccc(F)cc2)n1-c1ccccc1)N1CCC[C@@H]1C(c1ccccc1)c1ccccc1 | inconclusive: 39.8 µM [inhibitor, single point]
52 | CCC(=O)N1CC(C(=O)Nc2ccccn2)C2(CCOCC2)C1 (centres undefined) | inactive
53 | O=C(O)CC1COCCN1C(=O)c1cc(-n2cccn2)ccc1Cl (centres undefined) | inconclusive: 8.91 µM [inhibitor, single point]
54 | Cc1nc(-c2cccc(Cl)c2)n(Cc2ccc(F)c(F)c2)c(=O)c1CCO | inconclusive: 39.8 µM [inhibitor, single point]
55 | CN1CCC(C2CCN(C(=O)NC3CCCC3)C2)CC1 (centres undefined) | inconclusive: 0.708 µM [inhibitor, single point]
56 | Cc1cc(CNC(=O)c2ccc3c(c2)n(CC2CC2)c(=O)n3C2CCCCC2)on1 | inconclusive: 12.6 µM [inhibitor, partial curve, poor fit]
57 | CN(Cc1ccccc1)C(=O)c1cccc(NC(=O)c2nsc3ccccc23)c1 | inconclusive: 12.6 µM [inhibitor, single point]
58 | CC(C)(C)OC(=O)N1CCC(c2c(C(=O)N3CCN(c4ccccn4)CC3)cnn2-c2ccccc2Cl)CC1 | inconclusive: 3.55 µM [inhibitor, full curve]
59 | N#Cc1ccc(-n2nc(C3CCOCC3)nc2C2(C(N)=O)CC2)cc1 | inconclusive: 0.708 µM [inhibitor, full curve, poor fit]
